Experimental findings from US20120052007A1, “PERIPHERAL BLOOD SPARC BINDING ANTIBODIES AND USES THEREOF” (ABRAXIS BIOSCIENCE, LLC, priority 2010, published 2012) are described below.

This test has as its target T1, SPARC (Homo sapiens, UniProt P09486).
T1 sequence (P09486 18-303): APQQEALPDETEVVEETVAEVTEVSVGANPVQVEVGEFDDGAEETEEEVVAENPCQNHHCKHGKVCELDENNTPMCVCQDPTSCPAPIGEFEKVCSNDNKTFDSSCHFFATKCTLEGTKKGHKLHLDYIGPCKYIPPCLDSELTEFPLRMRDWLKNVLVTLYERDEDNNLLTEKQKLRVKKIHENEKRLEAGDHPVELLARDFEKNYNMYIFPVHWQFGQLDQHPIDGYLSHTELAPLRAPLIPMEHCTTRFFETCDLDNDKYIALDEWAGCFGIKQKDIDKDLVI
Description: ELISA verification of SPARC binding activity of Fab regions. Particulars: purified Fab. From the text:
A pASK84 expression vector (FIG. 1) was used to express the Fab regions of the resulting antibodies, designated Imm1 through Imm12. The Fab regions were targeted to the periplasm where they were collected and subsequently purified via activity chromatography on a protein A sepharose column. Identity was verified by Western blot and SPARC binding activity was verified by ELISA.
Imm13 and Imm14 are fully human anti-human SPARC antibodies which were generated using a human phage display library. SPARC was panned against the commercial human Fab phage display library HuFabL® (Creative Biolabs, Shirley, N.Y.). SPARC binding activity was verified by ELISA for these two Fab molecules.

B1: Fab6: human SPARC binding Fab from phage display library HuFabL, SEQ ID NO 15 (protein)
chain: QVQLVQSGGGLVQPGGSLRLSCAASGFTVSSNYMSWVRQAPGKGLEWVSVIYSGGSTYYADSVKGRFTISRDNSKNTLYLQMNSLRAEDTAVYYCARGIAAAGLDYWGQGTLVTVSPASTKGPSVFPLAPSSKSTSGGTAALGCLVKDYFPEPVTVSWNSGALTSGVHTFPAVLQSSGLYSLSSVVTVPSSSLGTQTYVCNVNHKPSNTKVDKKVEPKSCDKTSELVLTQPPSVSAAPGQKVTISCSGSSSNIGNNYVYWYQQLPGTAPKLLIYRNNQRPSGVPDRFSGSKSGTSASLAISGLRSEDEADYYCAAWDDSLSGWVFGGGTKLTVLGQPKAAPSVTLFPPSSEELQANKATLVCLISDFYPGAVTVAWKADGSPVKAGVETTTPSKQSNNKYAASSYLSLTPEQWKSHRSYSCQVTHEGSTVEKTVAPTECS
Turning to B1, the “SPARC binding activity (ELISA)” value is on record as “verified”.
